Assay results from the supplement of paper PMC12217912.
Some of the results follow. Sequences were assembled here from the parent chain. Values near 0.05 are background.

B1: TEV protease; numbered along this chain (parent)
chain: MGESLFKGPRDYNPISSSICHLTNESDGHTTSLYGIGFGPFIITNKHLFRRNNGTLVVQSLHGVFKVKDTTTLQQHLVDGRDMIIIRMPKDFPPFPQKLKFREPQREERICLVTTNFQTKSMSSMVSDTSCTFPSGDGIFWKHWIQTKDGQCGSPLVSTRDGFIVGIHSASNFTNTNNYFTSVPKNFMELLTNQEAQQWVSGWRLNADSVLWGGHKVFMVKPEEPFQPVKEATQL

Variants of: B1
Assay: raw area under fraction-flipped curve 0-4 h after induction (AUC4h, not background-subtracted), DNA-recorder readout of cleavage of the substrate (dimensionless); higher = more cleavage of the substrate by the protease variant
Conditions: temperature: 34 °C; time window: 0-4 h after rhamnose induction
Protocol: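 In vivo DNA recorder in E. coli TOP10(DE3) ΔrhaA at 34 °C. Each TEVp single-site mutant (parent TEVp 0) is paired with a single-site variant of the 7-mer TEVs (canonical ENLYFQ|S). The substrate sits between flexible linkers in a Bxb1-sfGFP-TEVs-SsrA fusion, so cleavage stabilises Bxb1 and speeds flipping of a recombination array, read by NGS. The value is the raw area under the fraction-flipped curve over 0-4 h after rhamnose induction (AUC4h), with ≥20 reads per time point. It is not background-subtracted; inactive controls average about 0.047.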
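Note: Bxb1 expression induced with 0.2% (w/v) L-rhamnose at OD600 near 0.5, cultures sampled hourly, flipped fraction per protease–substrate barcode pair counted by paired-end Illumina sequencing.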

Variant	area with substrate ENLYAQS	area with substrate ENLYCQS	area with substrate ENLYDQS	area with substrate ENLYEQS	area with substrate ENLYGQS	area with substrate ENLYHQS	area with substrate ENLYIQS	area with substrate ENLYKQS	area with substrate ENLYLQS	area with substrate ENLYMQS	area with substrate ENLYNQS	area with substrate ENLYPQS	area with substrate ENLYQQS	area with substrate ENLYRQS	area with substrate ENLYSQS	area with substrate ENLYTQS	area with substrate ENLYVQS	area with substrate ENLYWQS	area with substrate ENLYYQS
P14M	0.0642	0.0787	0.0592	0.0681	0.064	0.0683	0.0903	0.0651	0.0792	0.0837	0.0682	0.0761	0.0654	0.061	0.0798	0.0792	0.0577	0.107	0.0476
P14Y	0.0705		0.0652	0.0745		0.0534		0.0697	0.0783		0.0713	0.0474	0.0627	0.0658			0.109	0.0786	0.0622
P14A	0.0867	0.0979	0.0528	0.0755	0.0726	0.0904	0.13	0.0681	0.0835	0.0551	0.0718	0.072		0.0559			0.157	0.0869	0.083
P14T	0.0716	0.0871	0.062	0.0677	0.0655	0.0804	0.116	0.0632		0.0904	0.0629	0.0584	0.0599	0.0598	0.0596	0.0659	0.112	0.0727	0.0646
I15D	0.052		0.0569	0.0621	0.0488	0.0528	0.0856	0.0553	0.0601	0.0643	0.0615	0.0696	0.0478	0.0581	0.0629	0.0598	0.077	0.06	0.0464
I15K	0.0516		0.0561	0.0612	0.0543	0.0673		0.0605	0.0527		0.0548	0.0582	0.0448	0.0438	0.0474	0.0575	0.0869	0.0625	
F38Y	0.0718	0.0735	0.0669	0.0731	0.0623	0.0766	0.0681	0.0529	0.101	0.112	0.0717	0.0788			0.0708	0.0834	0.185	0.0845	0.0653
F38W	0.0911		0.0633	0.0754	0.0642	0.0701		0.0697	0.0821	0.0899	0.0627	0.0753	0.0706	0.059	0.0901	0.0897	0.127	0.0868	
G28D	0.0791		0.0642	0.0427	0.063	0.0672		0.0687	0.0858	0.0779	0.0831	0.0677	0.0612	0.0855	0.112	0.076	0.0895	0.117	0.0401
S4C	0.0768		0.0649	0.0817	0.0601	0.0672	0.0875	0.0721		0.0657	0.0677	0.0701			0.0697	0.0784	0.0846	0.067	0.0623
G39M	0.0404		0.0416	0.0483	0.0451	0.0452	0.0384	0.041	0.0471	0.0388		0.0476	0.0381	0.0383				0.0378	0.0428
G39R	0.0595		0.0427	0.0493	0.0629	0.0575		0.0371	0.0437	0.0396		0.0485	0.0428	0.0502	0.0703	0.0482	0.0486	0.0364	0.0147
G39E	0.0522	0.0566	0.0569	0.0343	0.0437	0.0539				0.0246	0.0341	0.0528	0.0019	0.0449	0.0417			0.0478	0.0425
E3Q	0.0707		0.057	0.0769	0.0592	0.0805	0.121				0.0733	0.0755	0.0635	0.0701	0.0866		0.103		0.0681
F41I	0.0653		0.0609	0.0641	0.072	0.0566	0.105	0.0594	0.0654	0.0694	0.0673	0.0676	0.0586	0.0625			0.116	0.075	0.0457
I36S	0.0652		0.0702	0.0583	0.0536	0.0573		0.0476	0.0634		0.0535		0.0586	0.0484	0.0646	0.033		0.0561	0.05
I36M	0.0617	0.085	0.0683	0.0614	0.0483	0.0659	0.139		0.0726	0.0891	0.0655	0.0692	0.0635		0.0456		0.134	0.0778	
I36W	0.0655	0.0634		0.0654	0.0624	0.041			0.0309	0.056	0.0443	0.0712		0.0542	0.0429	0.036	0.0582	0.0506	0.105
I36H	0.0531			0.0408	0.0384	0.056	0.0448	0.0253		0.0632	0.0682	0.0659	0.0531	0.0378		0.0589	0.0391	0.0364	
S17A	0.0513	0.0847	0.0819	0.0622	0.0685	0.0669	0.134	0.0689	0.0911	0.0922	0.0733	0.0742	0.052	0.095	0.0781		0.105	0.103	0.115
L33I	0.0794		0.0608	0.0587	0.0584	0.0542	0.0591	0.0561		0.0591	0.0647	0.0682		0.0733	0.0786	0.0631	0.0974		
L33M	0.0716		0.0605	0.0682	0.0519	0.0661	0.105	0.0397	0.0942	0.0637	0.0571	0.0676	0.0562	0.0565	0.0689	0.0475	0.0675	0.0664	0.0672
